Assay results reported in article PMC10394085.
These are yes or no findings as the source states them, for the method shown. For some of these results: In cells and extracts the contact can be indirect. Some entries that bind do so weakly or less than the wild type. Values belong to the substance of their own block, whether it stands above or below them.

By UniProt entry, the sequences of proteins in these tests, tags left out. Where a name states a change or a piece, a line headed by the entry shows the natural chain unless it says otherwise. Chains listed by the source or under a name are the forms on record and can include a tag or linker.
UniProt Q9QY76: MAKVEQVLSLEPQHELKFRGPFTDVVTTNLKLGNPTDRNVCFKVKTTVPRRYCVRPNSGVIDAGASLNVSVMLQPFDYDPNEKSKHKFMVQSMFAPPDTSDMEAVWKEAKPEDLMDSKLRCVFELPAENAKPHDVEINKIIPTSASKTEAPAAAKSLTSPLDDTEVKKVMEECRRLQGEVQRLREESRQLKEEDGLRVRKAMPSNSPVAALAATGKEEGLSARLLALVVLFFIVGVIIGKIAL
HA-VAPB KMDD mutant (Q9QY76, form named): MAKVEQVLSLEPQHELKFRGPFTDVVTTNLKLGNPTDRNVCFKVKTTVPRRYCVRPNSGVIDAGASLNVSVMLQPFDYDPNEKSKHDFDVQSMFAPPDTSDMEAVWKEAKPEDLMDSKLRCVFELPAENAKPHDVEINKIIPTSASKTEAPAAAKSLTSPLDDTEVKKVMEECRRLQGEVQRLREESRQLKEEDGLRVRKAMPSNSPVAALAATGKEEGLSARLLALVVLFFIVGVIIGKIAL
UniProt P35569: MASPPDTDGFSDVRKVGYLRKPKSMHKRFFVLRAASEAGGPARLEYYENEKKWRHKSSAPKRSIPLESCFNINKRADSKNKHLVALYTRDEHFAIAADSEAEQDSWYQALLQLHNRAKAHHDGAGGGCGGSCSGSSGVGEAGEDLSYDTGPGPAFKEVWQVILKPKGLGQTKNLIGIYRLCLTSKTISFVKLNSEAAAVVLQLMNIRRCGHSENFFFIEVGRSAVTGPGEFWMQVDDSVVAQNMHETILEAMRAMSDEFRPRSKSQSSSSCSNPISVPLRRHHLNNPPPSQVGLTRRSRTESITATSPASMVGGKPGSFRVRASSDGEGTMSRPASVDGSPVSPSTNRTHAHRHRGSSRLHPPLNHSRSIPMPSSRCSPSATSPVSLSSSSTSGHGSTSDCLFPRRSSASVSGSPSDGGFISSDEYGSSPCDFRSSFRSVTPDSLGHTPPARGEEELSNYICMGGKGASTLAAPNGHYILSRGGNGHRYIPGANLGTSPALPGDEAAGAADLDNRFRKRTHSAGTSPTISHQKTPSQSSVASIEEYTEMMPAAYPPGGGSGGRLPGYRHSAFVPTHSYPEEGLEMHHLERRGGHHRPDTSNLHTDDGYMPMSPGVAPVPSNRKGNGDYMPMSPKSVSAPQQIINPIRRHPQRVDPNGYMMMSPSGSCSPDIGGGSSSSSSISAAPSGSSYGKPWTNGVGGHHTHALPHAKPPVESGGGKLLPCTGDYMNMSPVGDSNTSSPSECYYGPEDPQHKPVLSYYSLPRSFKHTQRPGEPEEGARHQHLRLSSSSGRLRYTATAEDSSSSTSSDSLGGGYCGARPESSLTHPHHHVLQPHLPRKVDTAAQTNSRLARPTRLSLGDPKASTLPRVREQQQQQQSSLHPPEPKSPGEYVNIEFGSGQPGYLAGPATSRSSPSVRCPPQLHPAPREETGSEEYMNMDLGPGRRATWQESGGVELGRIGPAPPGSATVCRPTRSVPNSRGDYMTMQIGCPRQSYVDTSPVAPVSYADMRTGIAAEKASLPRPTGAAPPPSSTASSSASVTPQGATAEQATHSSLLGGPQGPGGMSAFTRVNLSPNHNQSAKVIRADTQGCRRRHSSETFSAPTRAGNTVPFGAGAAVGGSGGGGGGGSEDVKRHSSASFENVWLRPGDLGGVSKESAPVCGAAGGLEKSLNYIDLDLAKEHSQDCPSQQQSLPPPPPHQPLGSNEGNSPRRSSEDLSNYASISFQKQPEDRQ
FLAG-tagged IRS-1 2YA mutant (P35569, form named): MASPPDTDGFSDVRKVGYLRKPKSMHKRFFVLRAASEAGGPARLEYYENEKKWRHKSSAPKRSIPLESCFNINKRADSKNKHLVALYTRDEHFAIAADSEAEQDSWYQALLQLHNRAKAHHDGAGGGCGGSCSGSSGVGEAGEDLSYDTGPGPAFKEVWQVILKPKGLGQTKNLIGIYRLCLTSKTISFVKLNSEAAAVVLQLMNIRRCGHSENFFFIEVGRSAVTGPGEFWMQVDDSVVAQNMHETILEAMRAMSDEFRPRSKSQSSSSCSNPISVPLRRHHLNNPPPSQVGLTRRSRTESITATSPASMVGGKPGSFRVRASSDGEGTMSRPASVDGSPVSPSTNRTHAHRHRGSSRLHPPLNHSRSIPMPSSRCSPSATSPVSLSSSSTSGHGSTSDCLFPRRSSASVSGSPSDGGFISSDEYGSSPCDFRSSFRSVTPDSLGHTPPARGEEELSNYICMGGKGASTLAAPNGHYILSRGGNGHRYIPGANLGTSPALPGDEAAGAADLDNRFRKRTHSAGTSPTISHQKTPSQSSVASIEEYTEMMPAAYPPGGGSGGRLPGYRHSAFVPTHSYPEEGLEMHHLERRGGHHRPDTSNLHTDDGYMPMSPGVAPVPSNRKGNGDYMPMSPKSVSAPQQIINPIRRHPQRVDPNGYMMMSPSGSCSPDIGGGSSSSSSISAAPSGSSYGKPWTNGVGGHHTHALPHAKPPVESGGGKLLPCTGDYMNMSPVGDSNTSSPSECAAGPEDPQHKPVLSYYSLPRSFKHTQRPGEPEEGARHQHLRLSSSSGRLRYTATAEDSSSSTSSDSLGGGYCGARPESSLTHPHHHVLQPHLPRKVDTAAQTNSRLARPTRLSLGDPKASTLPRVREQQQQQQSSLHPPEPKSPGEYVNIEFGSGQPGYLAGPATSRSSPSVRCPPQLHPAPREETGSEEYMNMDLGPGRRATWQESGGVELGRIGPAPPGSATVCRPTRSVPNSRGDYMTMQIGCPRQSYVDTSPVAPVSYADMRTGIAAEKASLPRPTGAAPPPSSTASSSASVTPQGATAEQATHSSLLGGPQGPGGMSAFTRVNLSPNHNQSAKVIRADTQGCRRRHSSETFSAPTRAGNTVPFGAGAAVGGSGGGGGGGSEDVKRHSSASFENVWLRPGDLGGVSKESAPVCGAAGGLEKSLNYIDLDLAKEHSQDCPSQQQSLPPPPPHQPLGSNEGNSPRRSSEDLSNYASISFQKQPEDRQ

What was measured:
[1] = target: GST-VAPB fusion protein (UniProt Q9QY76); experiment: pull-down; GST or GST-VAPB on beads incubated with FLAG-IRS-1 eluted by FLAG peptide from anti-FLAG gel; 4 °C, 2–3 h; 200 mM NaCl, 50 mM Tris pH 7.3, 0.25 mM EDTA, 1% sodium deoxycholate, 1% Triton X-100; Western blot with anti-FLAG; both purified
[2] = target: Endogenous VAPB (mouse (endogenous in C2C12)) (UniProt Q9QY76); experiment: co-IP; endogenous proteins in C2C12 myoblast lysate; endogenous VAPB immunoprecipitated (the legend of Fig. 2b says IRS-1 antibodies), protein A/G agarose, Western blot; cells with or without 100 ng/mL IGF-1 for 2.5 min after serum starvation (enhanced), Tg or Tu for 3 h (impaired), expression of VAPB P56S (reduced)
[3] = target: FLAG-tagged VAPB (UniProt Q9QY76); experiment: co-IP; tagged constructs co-transfected into 293T cells; lysates immunoprecipitated with anti-FLAG M2 beads; Western blot; lysis buffer 150 mM NaCl, 50 mM Tris pH 7.3, 1% sodium deoxycholate, 1% Triton X-100
[4] = target: FLAG-tagged IRS-1 (mouse) (UniProt P35569); experiment: as above
[5] = target: FLAG-tagged IRS-1 2YA mutant (mouse) (UniProt P35569); experiment: as above
[6] = target: FLAG-tagged IRS-1 F766A mutant (mouse) (UniProt P35569); experiment: as above

Substance: Endogenous IRS-1 (from UniProt P35569 1-1233)
binding [2]: binds

Substance: GFP-IRS-1 (from UniProt P35569 1-1233)
binding [3]: binds

Substance: HA-VAPB KMDD mutant (from UniProt Q9QY76 1-243)
binding [4]: no binding

Now from value to substance:

binding [1]: binds
Substance: FLAG-tagged IRS-1 (from UniProt P35569 1-1233)

binding [4]: binds
binding [5]: no binding
binding [6]: binds
Substance: HA-VAPB (from UniProt Q9QY76 1-243)
